# Results reported in PubChem BioAssay AID662 (National Center for Advancing Translational Sciences (NCATS), 2007).
# Out of some 71,000 compounds screened, about 1,800 (2.5%) were called active. Inconclusive means that the source gave no clear call. Such entries were picked first, then a sample of the others. Calls follow the shape of the dose curve; as a rule, active = well fitted activation curve with a large enough effect in the signal ratio, with a control signal flat (not every such curve was filed as active); inconclusive = small, poorly fitted or top-dose-only effect, or effect the other way, or a change in a side signal; inactive = flat fitted curve, though single readings scatter; the % refers to the signal ratio. Potencies beside an inconclusive call are fits to weak or partial responses and may not hold up.
# Assay: Cell signaling CRE-BLA (Fsk stim); as to activity change, negative = inhibition: % of control where 0% means no effect
# Conditions: CHO CRE-bla reporter (cAMP response element driving beta-lactamase), forskolin EC10, beta-lactamase ratio; activity change, negative = inhibition: at 38.2 µM (top of the series) unless noted
# Outline: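 Forskolin analogue NKH 477 at EC10 stimulated CRE-driven beta-lactamase in CHO cells alongside compound dilution series. Beta-lactamase was measured with CCF4, excitation 405 nm, emission ratio 460/530 nm.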
# Potency is read from the fitted curve at half-maximal effect; tags tell the direction and shape of the fitted curve.
SMILES,"activity change, negative = inhibition",Potency
O=C(O)C1CCCN1c1ncccn1 (stereo unspecified),inconclusive: -7.95%,–
COc1ccc(Oc2ncc3nc(-c4cc(F)cc(F)c4)c(=O)n(CCC#N)c3n2)cc1,inactive: -2.53%,–
COc1cc2c(cc1OC)-c1cc(=Nc3c(C)cc(C)cc3C)n(C)c(=O)n1CC2,–,active: 2.51 µM
N#CCCn1c(=O)c(-c2cccs2)nc2cnc(N3CCOCC3)nc21,–,"inconclusive: 2 µM [rising, partial curve]"
COc1ccccc1N1CCN(S(=O)(=O)c2ccccc2F)CC1,inactive: 5.32%,–
CCCCCCN,inactive: -11.9%,–
COc1cccc(NC(=O)CN(C)S(=O)(=O)c2ccc(C)cc2)c1,inconclusive: -9.29%,–
Cn1c(CN2CCC(C(N)=O)CC2)c(C#N)c2ccccc21,inconclusive: 3.74%,–
COc1ccc2[nH]cc(C(=O)CN3CCN(C(=O)c4ccco4)CC3)c2c1,inconclusive: 4.28%,–
CCc1nnc(NC(=O)CSc2nnc(-c3ccccc3OC)n2-c2ccccc2)s1,inactive: 6.93%,–
c1ccc(/C(=N/Nc2nc3ccccc3s2)c2ccccn2)cc1,inactive: -4.25% [at 7.6 µM],–
CC(C)Cn1c(N)c(C(=O)NCC2CCCO2)c2nc3ccccc3nc21 (stereo unspecified),–,"inconclusive: 3.16 µM [rising, partial curve]"
COc1ccc(-c2nc3cnc(Oc4ccccc4)nc3n(Cc3cccs3)c2=O)cc1,–,active: 3.98 µM
Nc1nc(-c2ccco2)nc(N2CCCCC2)n1,inconclusive: 14.2%,–
COc1cccc(CN(Cc2cccnc2)S(=O)(=O)c2ccc(-n3cnnn3)c(C)c2)c1OC,inconclusive: -0.00839%,–
CCOC(=O)C1CCN(C(=O)C2CCN(S(=O)(=O)CC)CC2)CC1,inconclusive: 9.36%,–
COC(=O)/C=C\c1cc(O)ccc1O,inactive: 9.66%,–
CC(C)(C)n1ncc2c(=O)n(CC(=O)OCc3ccccc3)cnc21,–,"inconclusive: 12.6 µM [rising, single point]"
Cc1ccc(Cl)cc1N1CCN(C(=O)c2cc3c(=O)n(C)c4ccccc4c3n2C)CC1,inconclusive: 2.92%,–
CCOc1ccc2ccccc2c1/C=N/n1cncn1,inconclusive: 25.4%,–
N#CC1=C(N)S[C@H](C(=O)C23CC4CC(CC(C4)C2)C3)[C@H]1c1ccncc1,–,active: 0.794 µM

SMILES,"activity change, negative = inhibition",Potency
O=C1[C@@H]2C(Cc3ccc(O)cc3)NC3(C(=O)Nc4ccc(F)cc43)[C@@H]2C(=O)N1c1ccccc1 (stereo partly specified),inconclusive: -22.1%,–
CC(C)OCC(O)CN (stereo unspecified),inactive: 25%,–
Cn1c(=O)c2c(nc(N3CCCCC3)n2CCNC2=NCCC2)n(C)c1=O,inconclusive: 0.246%,–
CCOC(=O)N1CCN(C(=O)C(NC(=O)C2CCC(C)CC2)C(C)C)CC1 (stereo unspecified),inconclusive: -20%,–
CCN(CC)C(=O)c1sc(NC(=O)c2ccoc2C)c(C(=O)OC)c1C,–,"inconclusive: 12.6 µM [rising, partial curve]"
Cn1c(=O)c2c(nc(Br)n2CCSc2nnnn2-c2ccccc2)n(C)c1=O,inconclusive: 15.2%,–
FC(F)(F)c1ccccc1-c1ccc2ncnc(NCCN3CCOCC3)c2c1,–,"inconclusive: 12.6 µM [rising, partial curve]"
O=C(Nc1ccc(F)cc1Cl)c1ccc2c(=O)n3c(nc2c1)CCCCC3,inactive: 4.51%,–
O=C(Cn1cc(C(=O)c2cccs2)c2ccccc21)NCC1CCCO1 (stereo unspecified),inactive: -3.56%,–
COc1ccc(-c2nc3cnc(Nc4cccc(OC)c4)nc3n(C3CC3)c2=O)cc1,–,"inconclusive: 0.316 µM [rising, full curve]"
Cc1ccc(S(=O)(=O)CCc2nnc(NC(=O)c3cnccn3)s2)cc1,inactive: -1.25%,–
O=C(O)CCC(=O)c1ccc2ccc3cccc4ccc1c2c34,inconclusive: 21.6% [at 7.6 µM],–
CCOC(=O)N1CCC(NC(=O)c2cc(C)c3c(C)nn(-c4ccccc4)c3n2)CC1,inactive: -4.61%,–
COc1cc2cc(C(c3nnnn3C3CCCCC3)N(C)C3CCCCC3)c(=O)[nH]c2cc1OC (stereo unspecified),–,active: 12.6 µM
COC(=O)C1=C(C)NC2=C(C(=O)CCC2)C1c1ccccn1 (stereo unspecified),inactive: 9.18%,–
CCOC(=O)C1C(=O)NCC2CCCC21 (stereo unspecified),–,"inconclusive: 3.16 µM [rising, single point]"
CCOC(=O)c1sc2nc3n(c(=O)c2c1C)CCC(C)CC3 (stereo unspecified),inconclusive: 15.6%,–
COc1ccc(-c2cc(C(F)(F)F)nc(SCC(=O)N3CC(C)OC(C)C3)n2)cc1OC (stereo unspecified),inconclusive: 23.4%,–
CNc1cc(-c2ccccc2CN(C)C)ncn1,inactive: 2.26%,–
COc1cccc(NC(=O)c2nnn(CCc3ccccc3)c2N)c1,inactive: -8.22%,–
